About 16,000 (4.4%) of roughly 360,000 compounds were called active. The inconclusive results got no clear call from the source; some entries with a clear call stand among them for comparison. The call rests on the fitted dose curve; in most records, active means well fitted inhibition curve with a large enough effect; inconclusive means small, poorly fitted or top-dose-only effect; inactive means no such curve, though single readings can be large or run the other way. Potencies of inconclusive entries are doubtful fits and often do not repeat.
These molecules were tested against Bromodomain adjacent to zinc finger domain protein 2B (Homo sapiens) (UniProt Q9UIF8) (assay: qHTS Assay for Inhibitors of BAZ2B). Conditions: AlphaScreen BAZ2B-H3K14Ac peptide displacement; series mostly up to 114 µM.
Summary of the method: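 BAZ2B (50 nM) with biotin-H3(5-23)K14Ac peptide (50 nM) in PBS pH 7.4, 0.01% Tween-20, preformed 30 min, then compound 30 min at room temperature; top concentration 110uM. AlphaScreen streptavidin donor/nickel chelate acceptor beads (10 ug/mL final), 20 min dark, signal read.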
Further: nearly all actives have a fitted effect of over 60% in size.
Potency means the concentration at half of the fitted maximal effect; tags describe the fitted curve by direction and shape.

UniProt Q9UIF8, sequence (Q9UIF8 whole entry, looked up, the tested form may be a part): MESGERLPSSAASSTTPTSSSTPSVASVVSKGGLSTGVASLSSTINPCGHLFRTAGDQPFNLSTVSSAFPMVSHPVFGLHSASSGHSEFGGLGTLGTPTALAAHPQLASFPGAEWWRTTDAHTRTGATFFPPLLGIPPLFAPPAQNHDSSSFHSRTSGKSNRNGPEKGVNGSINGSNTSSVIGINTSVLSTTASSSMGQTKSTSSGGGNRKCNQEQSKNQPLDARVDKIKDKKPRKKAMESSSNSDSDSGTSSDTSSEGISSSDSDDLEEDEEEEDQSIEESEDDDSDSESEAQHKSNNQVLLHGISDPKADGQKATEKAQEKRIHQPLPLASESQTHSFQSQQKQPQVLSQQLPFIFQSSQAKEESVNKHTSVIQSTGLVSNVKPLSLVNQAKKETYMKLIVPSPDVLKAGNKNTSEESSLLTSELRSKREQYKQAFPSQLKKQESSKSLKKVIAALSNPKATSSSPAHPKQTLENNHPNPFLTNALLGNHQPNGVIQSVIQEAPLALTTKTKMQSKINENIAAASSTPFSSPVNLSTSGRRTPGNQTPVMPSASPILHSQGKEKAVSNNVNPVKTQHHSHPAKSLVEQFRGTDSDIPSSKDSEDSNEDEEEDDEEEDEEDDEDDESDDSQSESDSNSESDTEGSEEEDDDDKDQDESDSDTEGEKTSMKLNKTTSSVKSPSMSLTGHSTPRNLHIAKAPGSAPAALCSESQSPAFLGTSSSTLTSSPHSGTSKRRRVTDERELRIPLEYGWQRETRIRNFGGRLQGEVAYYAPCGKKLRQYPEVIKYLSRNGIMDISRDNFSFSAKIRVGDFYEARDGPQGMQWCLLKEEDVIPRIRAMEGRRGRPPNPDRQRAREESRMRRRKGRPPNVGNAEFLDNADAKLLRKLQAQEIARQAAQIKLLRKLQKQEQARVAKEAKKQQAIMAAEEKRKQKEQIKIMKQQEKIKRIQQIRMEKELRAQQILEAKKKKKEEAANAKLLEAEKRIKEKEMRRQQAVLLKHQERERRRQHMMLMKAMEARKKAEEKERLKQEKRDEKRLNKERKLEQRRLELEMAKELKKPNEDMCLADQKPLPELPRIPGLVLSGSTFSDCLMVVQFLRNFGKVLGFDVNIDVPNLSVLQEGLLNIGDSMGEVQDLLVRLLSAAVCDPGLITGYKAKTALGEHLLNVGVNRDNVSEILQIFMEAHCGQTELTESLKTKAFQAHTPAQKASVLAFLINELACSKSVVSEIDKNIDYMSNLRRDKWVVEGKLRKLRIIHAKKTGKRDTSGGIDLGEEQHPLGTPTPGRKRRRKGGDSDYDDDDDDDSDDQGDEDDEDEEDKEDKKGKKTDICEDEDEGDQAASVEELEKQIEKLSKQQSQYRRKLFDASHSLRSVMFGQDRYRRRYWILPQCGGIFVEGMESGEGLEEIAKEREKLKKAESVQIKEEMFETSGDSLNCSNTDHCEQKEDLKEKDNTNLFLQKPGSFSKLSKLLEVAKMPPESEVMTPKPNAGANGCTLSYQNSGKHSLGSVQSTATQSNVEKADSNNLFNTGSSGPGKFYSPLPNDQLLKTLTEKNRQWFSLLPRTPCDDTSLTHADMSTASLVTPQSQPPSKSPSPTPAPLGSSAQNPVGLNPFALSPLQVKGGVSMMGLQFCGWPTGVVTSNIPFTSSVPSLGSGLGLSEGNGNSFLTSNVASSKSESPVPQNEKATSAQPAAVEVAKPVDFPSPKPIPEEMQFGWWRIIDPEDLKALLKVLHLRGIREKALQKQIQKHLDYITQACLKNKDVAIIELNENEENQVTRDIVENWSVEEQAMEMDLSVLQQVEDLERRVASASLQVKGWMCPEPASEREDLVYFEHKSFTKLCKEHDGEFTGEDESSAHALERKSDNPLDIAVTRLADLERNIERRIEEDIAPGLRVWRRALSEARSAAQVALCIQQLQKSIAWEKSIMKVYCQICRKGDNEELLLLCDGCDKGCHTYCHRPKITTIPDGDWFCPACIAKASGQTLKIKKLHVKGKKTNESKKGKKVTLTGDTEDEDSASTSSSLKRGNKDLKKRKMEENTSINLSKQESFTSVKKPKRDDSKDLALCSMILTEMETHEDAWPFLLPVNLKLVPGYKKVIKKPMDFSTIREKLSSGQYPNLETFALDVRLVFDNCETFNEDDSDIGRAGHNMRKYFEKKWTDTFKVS

SMILES | Potency
C=CC[n+]1c(-c2ccc(Cl)cc2Cl)csc1Nc1c(C)n(C)n(-c2ccccc2)c1=O | active: 39.8 µM
COc1ccc(CC(=O)Nc2nnc3n2CCS3)cc1 | inconclusive: 89.1 µM [inhibitor, single point]
COCCN(C(=O)COC(=O)Cc1coc2cc(C)ccc12)c1c(N)n(Cc2ccccc2)c(=O)[nH]c1=O | inconclusive: 100 µM [inhibitor, single point]
COc1cccc2c(C)c(C(=O)O)[nH]c12 | inconclusive: 89.1 µM [inhibitor, single point]
COc1ccc(Cl)cc1NC(=O)CN(C)C(=O)c1ccc(N2CCCCC2)c([N+](=O)[O-])c1 | inconclusive: 28.2 µM [inhibitor, partial curve]
NS(=O)(=O)c1ccc(NC(=O)COC(=O)c2cnc(Cl)c(Cl)c2)cc1 | inactive
CC1CCN(CCCOc2ccc(Br)cc2Cl)CC1 | active: 56.2 µM
Cc1snc2sc(C(=O)c3ccc(F)cc3)c(N)c12 | inactive
CCOc1ccc(-n2cc(-c3ccccc3)c3c(NCc4ccc(F)cc4)ncnc32)cc1 | inconclusive: 20 µM [inhibitor, single point]
CCCCSc1nnc2c(n1)[nH]c1ccccc12 | inconclusive: 100 µM [inhibitor, single point]
Cc1cccc(C)c1OCCN1CCOCC1 | inconclusive: 79.4 µM [inhibitor, single point]
CCOC(=O)Cn1nc(C)c(NC(=O)COc2ccc(C)c(C)c2)c1C | inactive
CN(C)CCCN(C(=O)c1ccc(C(=O)c2ccccc2)cc1)c1nc2ccc(F)cc2s1 | inconclusive: 50.1 µM [inhibitor, partial curve]
O=C(O)c1cc(NS(=O)(=O)c2ccc3ccccc3c2)ccc1O | inconclusive: 79.4 µM [inhibitor, single point]
COc1ccc(-c2cc(C3CCN(c4ncccc4[N+](=O)[O-])CC3)[nH]n2)cc1 | inconclusive: 39.8 µM [inhibitor, full curve]
O=C1/C(=C\c2ccc(Br)o2)Cc2ccccc21 | inconclusive: 31.6 µM [inhibitor, partial curve]
O=C(c1ccco1)N1CCN(CCOCCOc2cccc3ccccc23)CC1 | inconclusive: 89.1 µM [inhibitor, single point]
CCOC(=O)C1CCCN(Cc2cccc(Oc3ccccc3)c2)C1 (centres undefined) | inconclusive: 89.1 µM [inhibitor, single point]
CCN(CC)CCCN1C(=O)C(=O)/C(=C(/O)c2ccc(C)cc2)C1c1ccccn1 (centres undefined) | inconclusive: 100 µM [inhibitor, single point]

Reference: PubChem BioAssay AID504333 (National Center for Advancing Translational Sciences (NCATS), 2011)
